PubChem BioAssay AID1768 (National Center for Advancing Translational Sciences (NCATS), 2009)
Screen size: about 270,000 compounds; about 620 (0.23%) were called active. This list was built around the results that the source calls inconclusive (neither active nor inactive); the mix of calls is not that of the screen. The call rests on the fitted dose curve; in most records, active means well fitted inhibition curve with a large enough effect in the polarisation, with a control signal flat (not every such curve was filed as active); inconclusive means small, poorly fitted or top-dose-only effect, or effect the other way, or a change in a side signal; inactive means no such curve, though single readings can be large or run the other way; the % refers to the polarisation. Where the call is inconclusive, the potency comes from a doubtful curve fit. A note “side channel” means that the fit belongs to a control or component signal, not to the main read-out.

biological target: Menin (Homo sapiens) (UniProt O00255); experiment: qHTS Assay for Inhibitors Targeting the Menin-MLL Interaction in MLL Related Leukemias: Competition With Texas Red Labeled MLL-derived Mutant Peptide; conditions: fluorescence polarization; series mostly up to 61.6 µM
UniProt O00255, sequence (O00255 whole entry, looked up): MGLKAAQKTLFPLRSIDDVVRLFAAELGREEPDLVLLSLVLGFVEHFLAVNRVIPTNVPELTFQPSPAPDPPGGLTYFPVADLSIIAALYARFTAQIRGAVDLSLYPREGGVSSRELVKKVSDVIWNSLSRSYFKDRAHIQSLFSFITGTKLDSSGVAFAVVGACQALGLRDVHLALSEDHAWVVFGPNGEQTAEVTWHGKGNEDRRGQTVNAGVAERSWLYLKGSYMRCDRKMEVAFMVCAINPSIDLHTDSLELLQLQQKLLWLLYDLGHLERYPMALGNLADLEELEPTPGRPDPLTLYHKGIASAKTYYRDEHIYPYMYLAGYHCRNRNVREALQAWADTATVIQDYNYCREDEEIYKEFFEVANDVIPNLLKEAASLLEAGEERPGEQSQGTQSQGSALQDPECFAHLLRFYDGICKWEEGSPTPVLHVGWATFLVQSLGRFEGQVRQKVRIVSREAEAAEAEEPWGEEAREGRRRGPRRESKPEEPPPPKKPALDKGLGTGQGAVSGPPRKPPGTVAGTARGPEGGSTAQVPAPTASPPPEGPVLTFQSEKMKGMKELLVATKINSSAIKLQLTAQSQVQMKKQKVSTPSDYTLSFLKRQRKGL
Potency means the concentration at half of the fitted maximal effect; tags describe the fitted curve by direction and shape or compound fluorescence and quenching.

Potency, inactive:
CCN(Cc1ccccc1)c1ccc(N=Nc2nn(C)c(C)c2[N+](=O)[O-])cc1
CC(=O)Nc1nonc1-c1nc2ccccc2n1CC1CC1
Clc1ccc(Cn2ccc3ccccc32)cn1
CCOC(=O)C1CCN(C(=S)Nc2ccccc2)CC1

Potency, inconclusive:
CC(C)(C)NC(=O)NC(=O)C[n+]1ccc(Cc2ccc([N+](=O)[O-])cc2)cc1 35.5 µM [inhibitor, single point]
FC(F)(F)c1nnc2c(Sc3ccccn3)nc3ccccc3n12 44.7 µM [inhibitor, single point]
CC(NCc1cccn1C)c1ccccc1 (stereo unspecified) 39.8 µM [inhibitor, single point]
CCn1nnc(-c2ccccc2NC(=O)c2cccc(-n3cnnn3)c2)n1 39.8 µM [fluorescent, side channel, single point]
O=C(Nc1ccc(Oc2nnc(-c3ccccc3)c3ccccc23)cc1)c1ccccc1 35.5 µM [fluorescent, side channel, single point]
COc1ccc(Cl)cc1NC(=O)CSc1nc(NS(=O)(=O)c2ccccc2)cc(=O)[nH]1 8.91 µM [inhibitor, full curve, poor fit]
CC(=O)Nc1ccc(NC(=O)c2cc[n+]([O-])cc2)cc1 31.6 µM [inhibitor, partial curve]
O=C(CCN1C(=O)c2cccc3cccc(c23)C1=O)NCc1ccco1 39.8 µM [inhibitor, single point]
CC1(c2ccc(OC(F)F)cc2)NC(=O)N(CC(=O)Nc2ccc(OC(F)F)cc2)C1=O (stereo unspecified) 0.891 µM [quencher, side channel, full curve, poor fit]
CCCN(CC(=O)Nc1ccccc1C)C(=O)c1ccc(COc2ccccc2)cc1 4.47 µM [inhibitor, partial curve]
COc1nc(-c2ccc(Cl)cc2)nnc1C 35.5 µM [inhibitor, partial curve]
O=C(Nc1ccc(Nc2ccccc2)cc1)c1c(F)c(F)c(F)c(F)c1F 20 µM [quencher, side channel, partial curve]
CCCN(CCC)CCCNC(=O)c1cn(CC)c2ccc(S(=O)(=O)N3CCc4ccccc4C3)cc2c1=O 11.2 µM [fluorescent, side channel, partial curve]
O=C(NC(=S)Nc1ccc(N2CCOCC2)cc1)c1cccs1 22.4 µM [quencher, side channel, partial curve]
COc1ccc(NC(=O)c2c[nH]n3c(=O)cc(C4CCN(C(=O)OC(C)(C)C)CC4)nc23)cc1Cl 0.708 µM [quencher, side channel, full curve, poor fit]
COc1ccc(N2C(=O)[C@@H]3[C@H](C2=O)[C@H]2c4ccccc4C=CN2[C@@H]3C(C)=O)cc1 39.8 µM [quencher, side channel, single point]
Cc1ccc(S(=O)(=O)CCc2nnc(NC(=O)COc3cccc(C)c3)s2)cc1 39.8 µM [fluorescent, side channel, single point]
COC(=O)c1sccc1NC(=O)CSc1nnnn1-c1ccccc1F 31.6 µM [quencher, side channel, single point]
CC(=O)Nc1ccc(S(=O)(=O)Nc2ccc3[nH]c(=O)[nH]c3c2)cc1 8.91 µM [quencher, side channel, single point]
N#C/C(=C\c1ccc(-c2ccc([N+](=O)[O-])cc2Br)o1)C(=O)N1CCN(c2ccccc2)CC1 25.1 µM [quencher, side channel, single point]
Oc1c(N=NC(=S)Nc2ccccc2F)c2ccccc2n1Cc1ccc(F)cc1 11.2 µM [quencher, side channel, partial curve]
Oc1ccc(N=Nc2n[nH]c(-c3ccccc3)n2)cc1 39.8 µM [quencher, side channel, single point]
COc1ccc(C(=O)CC(Nc2ccc([N+](=O)[O-])cc2)c2ccc(Cl)cc2)cc1 (stereo unspecified) 3.16 µM [quencher, side channel, partial curve]
COC(=O)c1c(NC(=S)Nc2ccccc2Cl)sc(C)c1C 22.4 µM [quencher, side channel, single point]
O=C(COc1cccc(Cl)c1)Nc1nc(-c2ccc(S(=O)(=O)N3CCOCC3)cc2)cs1 3.98 µM [inhibitor, single point]
Cc1ccc(-c2cc(=O)c3cc(C)ccc3[nH]2)cc1 56.2 µM [fluorescent, side channel, partial curve]
CC/C(=N\NC(=O)c1c[nH]c2ccccc12)c1cccs1 28.2 µM [quencher, side channel, single point]
COc1ccc(OC)c(NC(=O)c2ccccc2NS(=O)(=O)c2cccc3cccnc23)c1 31.6 µM [inhibitor, partial curve]
O=C(COc1cccc(Br)c1)N/N=C1\CCCc2ccccc21 20 µM [fluorescent, side channel, partial curve]
N#C/C(=C\c1ccccn1)c1nc2ccccc2s1 20 µM [quencher, side channel, partial curve]
O=C(O)c1ccc(N/N=C2/CCSc3ccc(F)cc32)cc1 25.1 µM [quencher, side channel, partial curve]
Cc1c(C(N)=O)sc2ncn(CC(=O)N3CCC(C)CC3)c(=O)c12 25.1 µM [inhibitor, partial curve]
